Assay results published in PubChem BioAssay AID624417 (National Center for Advancing Translational Sciences (NCATS), 2012).
The campaign covered roughly 410,000 compounds. About 6,400 (1.6%) were called active. This list was built around the results that the source calls inconclusive (neither active nor inactive); the mix of calls is not that of the screen. Calls follow the shape of the dose curve; as a rule, active = well fitted inhibition curve with a large enough effect; inconclusive = small, poorly fitted or top-dose-only effect; inactive = no such curve, though single readings can be large or run the other way. Potencies beside an inconclusive call are fits to weak or partial responses and may not hold up.

Biological target: Glucagon-like peptide 1 receptor (Homo sapiens) (UniProt P43220)
Sequence of UniProt P43220 (P43220 whole entry, looked up): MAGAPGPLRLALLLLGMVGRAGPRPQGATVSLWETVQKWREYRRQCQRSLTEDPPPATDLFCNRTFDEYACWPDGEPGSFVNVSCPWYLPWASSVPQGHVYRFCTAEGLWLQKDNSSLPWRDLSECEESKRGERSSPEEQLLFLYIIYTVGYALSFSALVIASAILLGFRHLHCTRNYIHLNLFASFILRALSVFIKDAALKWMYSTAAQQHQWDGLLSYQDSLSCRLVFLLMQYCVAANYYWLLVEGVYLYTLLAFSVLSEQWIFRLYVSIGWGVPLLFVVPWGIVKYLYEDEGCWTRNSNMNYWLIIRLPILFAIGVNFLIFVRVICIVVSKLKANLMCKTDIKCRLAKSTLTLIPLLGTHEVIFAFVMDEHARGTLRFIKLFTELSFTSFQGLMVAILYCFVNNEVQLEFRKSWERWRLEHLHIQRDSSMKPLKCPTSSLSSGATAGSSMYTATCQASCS
Assay: qHTS of GLP-1 Receptor Inverse Agonists (Inhibition Mode); also: nearly all actives have a fitted effect of over 55% in size
Settings: HEK293 GLP-1R CRE-luciferase, luminescence, 24 h, GLP-1R form is constitutively active; activity change, negative = inhibition: at 38.3 µM (top of the series) unless noted
Method in brief: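 Constitutively active GLP-1R drives a cAMP-responsive luciferase in stably transfected HEK293 cells; test compounds are added after overnight (12 h) attachment and left 24 hr, and signal loss in luminescence marks inhibition.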
% is scaled to controls: 0 for no effect and ±100 for the full control effect; potency is read from the fitted curve at half-maximal effect; tags tell the direction and shape of the fitted curve.

Potency, active:
CN(C(=S)Oc1ccc(C(=O)Nc2ccccc2)cc1)c1ccccc1 8.91 µM

Potency, inconclusive:
CCCC(=O)Nc1nc2c(s1)COc1ccccc1-2 11.2 µM [inhibitor, single point]
CCN1CCC(O)(/C=C/c2ccc(C)cc2)C(C(=O)/C=C/c2ccc(C)cc2)C1 (configuration not stated) 12.6 µM [inhibitor, single point]
O=S(=O)(Nc1cc(Sc2cccc3cccnc23)c(O)c2ccccc12)c1ccc(F)cc1 0.501 µM [inhibitor, full curve, poor fit]
O=C(NCCCN1CCN(c2cccc(Cl)c2)CC1)c1cnn(-c2ccc(F)cc2)c1-n1cccc1 10 µM [inhibitor, partial curve, poor fit]
O=C1C(=O)c2ccccc2C(O)=C1c1cccc([N+](=O)[O-])c1 3.55 µM [inhibitor, partial curve, poor fit]
COc1cc(NC(=O)c2cc(-c3cccc(OC)c3)n[nH]2)cc(OC)c1 15.8 µM [inhibitor, single point]
Cc1ccc(C(=O)NC(C)C2CC3CCC2C3)cc1 (configuration not stated) 12.6 µM [inhibitor, single point]
CCn1ccc(C(=O)Nc2ccc3c(c2)CCC3)n1 28.2 µM [inhibitor, single point]
Cc1ccc(NC(=O)CCN2CCN(C/C=C/c3ccccc3)CC2)cc1C 11.2 µM [inhibitor, partial curve, poor fit]
O=C(CCc1nc(-c2ccccc2F)no1)NC1CCN(Cc2ccccc2)CC1 2.51 µM [inhibitor, full curve, poor fit]
CCOC(=O)c1c(NC(=O)C2c3ccccc3Oc3ccccc32)sc(C(=O)N(CC)CC)c1C 7.94 µM [inhibitor, partial curve, poor fit]
C=CCNC(=S)N/N=C/c1ccc(-c2ccc(OC)cc2)o1 3.16 µM [inhibitor, partial curve, poor fit]
CC(C)(C)NC(=O)C(c1ccnc2ccccc12)n1c(=O)c(-c2cc3ccccc3[nH]2)nc2ccccc21 (configuration not stated) 7.08 µM [inhibitor, partial curve, poor fit]
CCN(CC)S(=O)(=O)c1ccc(NC(=O)c2cccnc2Cl)c(NC(=O)c2cccnc2Cl)c1 28.2 µM [inhibitor, single point]
COC(=O)C(CC(=O)c1ccc(Cl)cc1)c1ccc(C(C)C)cc1 (configuration not stated) 10 µM [inhibitor, partial curve, poor fit]
COc1ccc(N(CC(=O)NC2CC3CCC2C3)S(=O)(=O)c2ccc(C)cc2)cc1Cl (configuration not stated) 11.2 µM [inhibitor, partial curve, poor fit]
Cc1nn(-c2ccccc2)c(N2CCCC2)c1/C=N/Nc1ccc(S(=O)(=O)Nc2ccccc2)cc1[N+](=O)[O-] 0.501 µM [inhibitor, full curve, poor fit]
Cc1[nH]c(C)c(S(=O)(=O)N2CCN(c3cccc(C(F)(F)F)c3)CC2)c1C(=O)N1CCCC1 10 µM [inhibitor, partial curve, poor fit]
Cc1cc(C)nc(SCc2nnc(SCC(=O)Nc3nc(-c4ccccc4)cs3)n2-c2ccccc2)n1 5.62 µM [inhibitor, partial curve]
CSc1ccc(C(=O)NC2CCSc3ccccc32)cc1 (configuration not stated) 28.2 µM [inhibitor, single point]
CCOc1ccc(Cl)cc1-c1cc(C(=O)NCc2ccccc2)[nH]n1 11.2 µM [inhibitor, single point]
COc1ccccc1N(CC(=O)NCCSCc1ccco1)S(=O)(=O)c1ccccc1 14.1 µM [inhibitor, single point]
CC(C)Oc1cc(F)ccc1-c1cc(C(=O)Nc2cccc(C(F)(F)F)c2)[nH]n1 6.31 µM [inhibitor, partial curve, poor fit]
CCCC1CCC(=NNC(=S)NCCc2ccccc2)CC1 (configuration not stated) 28.2 µM [inhibitor, single point]
CCc1cccc(NC(=O)CN(C)S(=O)(=O)c2ccc3[nH]c4c(c3c2)CCCC4)c1 31.6 µM [inhibitor, partial curve, poor fit]
CC(C)(C)c1ccc(OCC(=O)NCCN2CCCC2)cc1 6.31 µM [inhibitor, partial curve, poor fit]
CCN(CC)S(=O)(=O)c1ccc(N2CCN(C)CC2)c(NC(=O)Nc2ccccc2F)c1 15.8 µM [inhibitor, partial curve, poor fit]
COc1cc(CCNC2=CC(=O)c3ncccc3C2=O)ccc1O 12.6 µM [inhibitor, single point]
CCOc1ccc(-n2nc3ccc(NC(=O)Cc4ccccc4)cc3n2)cc1 28.2 µM [inhibitor, single point]
Cc1ccc(-c2cnn(-c3cccc([N+](=O)[O-])c3)c2N)cc1 4.47 µM [inhibitor, partial curve]
COC(=O)c1sc2cccc(F)c2c1S(=O)(=O)N1CCN(c2cccc(C)c2)C(C)C1 (configuration not stated) 25.1 µM [inhibitor, single point]
COc1ccc(N2CCC(CNC(=S)Nc3c(C)cccc3C)C2)cc1 (configuration not stated) 28.2 µM [inhibitor, single point]
N#Cc1c(/N=C/c2cccs2)sc2c1CCCCC2 7.08 µM [inhibitor, partial curve, poor fit]
N#CCC(=O)Nc1ccc(C(=O)OCc2ccccc2Oc2ccccc2)cc1 28.2 µM [inhibitor, single point]
COc1ccc(C(=O)NC2CCCc3c2cnn3-c2cccc(C)c2C)o1 (configuration not stated) 1.78 µM [inhibitor, full curve, poor fit]
S=C(NCc1ccco1)Nc1ccc(Oc2ccc(Cl)cc2)cc1 12.6 µM [inhibitor, single point]
O=C(CC1SC(=Nc2cccc3ccccc23)N(Cc2ccccn2)C1=O)Nc1ccccc1Br (configuration not stated) 3.55 µM [inhibitor, partial curve, poor fit]
COc1ccc(C(=O)/C=C/C(=O)N(CC(=O)NC2CCCCC2)Cc2ccc(F)cc2)c(O)c1 22.4 µM [inhibitor, single point]
Cc1ccc2nc3c(c(Nc4ccccc4)c2c1)CCC3 22.4 µM [inhibitor, single point]
c1ccc(COc2ccc(OCCOCCn3cncn3)cc2)cc1 20 µM [inhibitor, single point]
CCCSc1nn2c(=O)c3ccccc3nc2s1 11.2 µM [inhibitor, single point]
COc1cc(NC(=O)c2ccc(F)cc2)c(OC)cc1Cl 28.2 µM [inhibitor, single point]
CN(C)CCC(=O)N1C/C(=C/c2ccccc2)C(=O)/C(=C\c2ccccc2)C1 28.2 µM [inhibitor, single point]
Fc1ccccc1-c1nc(NCCCN2CCOCC2)c2ccccc2n1 12.6 µM [inhibitor, partial curve, poor fit]
COc1cccc(C(c2nnnn2-c2c(C)cccc2C)N2CCN(C/C=C/c3ccccc3)CC2)c1OC (configuration not stated) 28.2 µM [inhibitor, single point]
OC(c1ccc(-c2ccccc2)cc1)c1ncc(-c2cccc(F)c2)[nH]1 (configuration not stated) 22.4 µM [inhibitor, single point]
Cc1cc(C(=O)COC(=O)c2ccco2)c(C)n1Cc1ccco1 1 µM [inhibitor, full curve, poor fit]

Potency, inactive:
CCOC(=O)c1c(C)oc2ncnc(Nc3cc(C)cc(C)c3)c12
O=C(NCCc1csc2nc(-c3ccccc3F)nn12)C(=O)Nc1cc(F)ccc1F
CC1(C2CC2)NC(=O)N(CC(=O)N2CCN(c3ccccc3F)CC2)C1=O (configuration not stated)
COC(=O)c1ccc(NC(=O)CC2C(=O)N(c3cccc(OC)c3)C(=O)N2C(C)C)cc1 (configuration not stated)
Cc1cccc(-n2ncc3c(Nc4ccc(F)cc4)ncnc32)c1
CCOC(=O)CCc1c(C)nc2cc(-c3cc(OC)cc(OC)c3)[nH]n2c1=O
COc1cccc(C(=O)NC2CC3CCC(C2)N3Cc2ccccc2)c1 (configuration not stated)
CCc1ccccc1-n1c(N)c(C(=O)OC)c2nc3ccccc3nc21
COc1ccc(-c2csc(NC(=O)C3=NN(c4ccccc4)C(=O)CC3)n2)cc1
COc1ccc(N2CCN(C3CCN(S(=O)(=O)c4ccc(F)cc4)CC3)CC2)cc1
CCOc1ccc(OCC)c(NC(=O)c2cc(S(=O)(=O)N3CCCC3)cn2C)c1
OCCc1ccc(O)c(-n2nc3ccccc3n2)c1
CCOC(=O)N1CCc2c(sc3c2c(=O)n(-c2ccccc2)c(=O)n3CC(=O)Nc2ccc(OC)cc2OC)C1

Activity change, negative = inhibition, inactive:
CCN1CCN(CCCN(Cc2ccco2)C(=S)Nc2ccc(Cl)c(C)c2)CC1 -4.66% [at 7.66 µM]
